From publication PMC7819943, “Rice protein-binding microarrays: a tool to detect cis-acting elements near promoter regions in rice”
The other results are listed elsewhere or left out.

Target: T1, OsWOX13 (Oryza sativa, UniProt Q5QMM3 1-267)
T1 sequence: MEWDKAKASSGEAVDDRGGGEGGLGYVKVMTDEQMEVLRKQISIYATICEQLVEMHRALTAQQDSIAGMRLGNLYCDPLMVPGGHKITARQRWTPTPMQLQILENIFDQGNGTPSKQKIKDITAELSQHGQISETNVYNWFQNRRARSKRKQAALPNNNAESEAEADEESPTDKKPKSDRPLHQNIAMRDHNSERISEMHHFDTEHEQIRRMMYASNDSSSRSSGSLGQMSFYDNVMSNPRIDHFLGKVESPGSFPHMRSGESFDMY
Assay: protein-binding microarray (RPBM); PBS, 2% BSA, 51.3 ng/ul salmon testes DNA, 50 uM zinc acetate, 200 nM TF, 25 C, 1 h; high values mean tight binding
Details: protein: recombinant; tags: N-terminal polyhistidine and DsRed monomer fusion (pET32a); label: CyDye5-dUTP incorporated in the synthesized complementary strand; 3' TTTTT single-stranded linker to array surface; dsDNA, one strand shown
Summary of the method: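 Transcription factors were made in E. coli BL21-CodonPlus as N-terminal fusions to a polyhistidine tag and DsRed, then purified on Ni–NTA. After primer extension with Cy5-dUTP and blocking with 2% BSA, a custom Agilent array was exposed for 1 h at 25 °C to 200 nM protein in PBS, 2% BSA, salmon testes DNA and 50 µM zinc acetate. Washed arrays were scanned on an Axon 4000B, and the binding signal is per-feature fluorescence intensity in arbitrary units.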

Sequence	binding signal
CTAGATTGATTTCTGCCAAACCGACGAAATTCATTTGTACCGGAGTCACCTAGTGCAG	46200 fluorescence intensity (a.u.)
AAGTTAAACCAAACCCAATCAATCGGTTTAACTCAAAATCCGGAGTCACCTAGTGCAG	5520 fluorescence intensity (a.u.)
ACAAACATCAAGTCAGCTAAATTAGCACGCACAAATCCAACGGAGTCACCTAGTGCAG	6380 fluorescence intensity (a.u.)
CCTAATTGCGTCATGATTTGACAATGTAGTGCTACAGTAACGGAGTCACCTAGTGCAG	50800 fluorescence intensity (a.u.)
TAGTAGATTGATTTCCTTAACCGAATATAGCAGGAATCCGCGGAGTCACCTAGTGCAG	52900 fluorescence intensity (a.u.)
TTGCTAAATGATATCAATTAAACGGTGTATCAATTCCATACGGAGTCACCTAGTGCAG	21400 fluorescence intensity (a.u.)
GTAGATGGATAGCTATTTCGATTTTATTTACCGATCTTCTCGGAGTCACCTAGTGCAG	3640 fluorescence intensity (a.u.)
GCCTATATCAATGCCACATTAATTGCCAGTTTGCCACGGTCGGAGTCACCTAGTGCAG	18400 fluorescence intensity (a.u.)
GTAAATAGATAATACTGACTTTTGATGCAATCCAGGTGAGCGGAGTCACCTAGTGCAG	19400 fluorescence intensity (a.u.)
CATGACTAAATTTAGAGTAAATCCCTTGTATACCCATGAACGGAGTCACCTAGTGCAG	27100 fluorescence intensity (a.u.)
TAGTGACAAATCACAAAGCAAATTAAAATGGTGGGTACATCGGAGTCACCTAGTGCAG	4940 fluorescence intensity (a.u.)
AGTATATTAATTAAAGACTTAACATGAAAGCTTGCATGTTCGGAGTCACCTAGTGCAG	24300 fluorescence intensity (a.u.)
TTTGATTCTTTTAAATTAAATAATTTTAAAGTCATTGATACGGAGTCACCTAGTGCAG	21100 fluorescence intensity (a.u.)
ACATAATTACAATTTCAACCAAATTTTCAATTTTAGCTTGCGGAGTCACCTAGTGCAG	23700 fluorescence intensity (a.u.)
CGGCCAAAATTGTAATTAGCCCCTTGCCGCCCTCTGTATGCGGAGTCACCTAGTGCAG	10400 fluorescence intensity (a.u.)
TTCTTCTGCACATAATTTGTATTTGATGCACTAACCAAGTCGGAGTCACCTAGTGCAG	3790 fluorescence intensity (a.u.)
AGATTAACAAAATTTTGAAGGATGTTTTCTACCAAATGCCCGGAGTCACCTAGTGCAG	6050 fluorescence intensity (a.u.)
GATTTAATTATATAGTCCCACATTTCTCTTGGATTGTTTACGGAGTCACCTAGTGCAG	14800 fluorescence intensity (a.u.)
CAAATAGTAAATTACTACTCCAGTGAAAATATAGTACTGCCGGAGTCACCTAGTGCAG	6260 fluorescence intensity (a.u.)
AAAACTCAATCAAATTGGGCCGTCCCTCCCCTTTCTCTTCCGGAGTCACCTAGTGCAG	5810 fluorescence intensity (a.u.)
TAGAGATTTGACAAGACGACATTCCCCTAGACAGTGTTCTCGGAGTCACCTAGTGCAG	4390 fluorescence intensity (a.u.)
CTCCGGTTTAATTTTAATTGATGTTTTGGACAATGGCACGCGGAGTCACCTAGTGCAG	44900 fluorescence intensity (a.u.)
CAAGCAATGATTGGATTGGATGCTGACGATGAAACGAACCCGGAGTCACCTAGTGCAG	20700 fluorescence intensity (a.u.)
